{
  "source": "paper PMC4336329",
  "about": "(PLoS ONE, 2015)",
  "note": "Screen size: about 310,000 compounds; about 14,000 (4.5%) showed an effect of 50% or more. The effect is printed as a negative number. The list shows a part of the results.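 Further: peak tail current of the secondary pulse compared with the same well before compound.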",
  "data": [
    {"biological_target": "human ether-à-go-go-related gene (hERG) potassium channel (human, UniProt Q12809)", "sequence (Q12809 whole entry, looked up)": "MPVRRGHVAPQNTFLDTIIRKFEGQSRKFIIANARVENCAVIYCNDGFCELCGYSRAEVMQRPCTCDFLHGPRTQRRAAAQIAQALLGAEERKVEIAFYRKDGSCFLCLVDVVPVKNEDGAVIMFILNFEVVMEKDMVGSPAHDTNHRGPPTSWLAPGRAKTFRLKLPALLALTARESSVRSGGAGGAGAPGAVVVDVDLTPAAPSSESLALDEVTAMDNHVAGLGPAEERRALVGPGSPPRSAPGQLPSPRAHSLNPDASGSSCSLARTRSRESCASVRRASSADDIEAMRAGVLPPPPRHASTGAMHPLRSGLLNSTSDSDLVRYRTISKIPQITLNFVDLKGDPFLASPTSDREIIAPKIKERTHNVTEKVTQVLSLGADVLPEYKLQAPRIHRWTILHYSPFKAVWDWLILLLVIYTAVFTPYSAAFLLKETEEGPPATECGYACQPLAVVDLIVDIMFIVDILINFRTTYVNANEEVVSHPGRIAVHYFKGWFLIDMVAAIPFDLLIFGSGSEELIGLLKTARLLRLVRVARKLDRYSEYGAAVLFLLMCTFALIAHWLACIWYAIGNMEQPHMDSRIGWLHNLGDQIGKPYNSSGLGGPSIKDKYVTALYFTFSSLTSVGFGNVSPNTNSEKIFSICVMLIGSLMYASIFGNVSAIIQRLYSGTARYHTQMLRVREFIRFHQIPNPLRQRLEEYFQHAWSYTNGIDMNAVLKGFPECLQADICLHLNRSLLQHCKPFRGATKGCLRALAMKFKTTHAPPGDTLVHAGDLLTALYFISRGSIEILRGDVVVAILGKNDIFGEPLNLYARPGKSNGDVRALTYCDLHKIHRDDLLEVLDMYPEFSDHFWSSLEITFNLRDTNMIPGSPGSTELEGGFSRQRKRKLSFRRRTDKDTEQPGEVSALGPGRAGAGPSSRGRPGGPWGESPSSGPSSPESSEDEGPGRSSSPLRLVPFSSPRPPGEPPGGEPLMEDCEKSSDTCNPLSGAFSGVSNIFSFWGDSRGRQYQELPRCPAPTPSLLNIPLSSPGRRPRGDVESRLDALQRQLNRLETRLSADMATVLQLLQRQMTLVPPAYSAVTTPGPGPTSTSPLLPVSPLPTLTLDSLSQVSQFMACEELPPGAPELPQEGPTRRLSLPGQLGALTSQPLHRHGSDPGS", "assay": "primary screen, population patch clamp on CHO cells stably expressing hERG", "units": {"hERG current change (%, negative = inhibition) at 10uM": "%"}, "values": [
      {"smiles": "CCC(C)Sc1cccc(-c2nc3ccc(C)cn3c2NCc2ccccc2)c1.O=C(O)C(F)(F)F", "note": "(stereo not shown)", "hERG current change (%, negative = inhibition) at 10uM": 7.31},
      {"smiles": "C=CCn1c(SCC(=O)NC2CCS(=O)(=O)C2)nc2scc(C3CC3)c2c1=O", "note": "(stereo not shown)", "hERG current change (%, negative = inhibition) at 10uM": -33.6},
      {"smiles": "Cc1ccc(CNC(=O)CCC(=O)N2CC(C)Sc3ccccc32)cc1", "note": "(stereo not shown)", "hERG current change (%, negative = inhibition) at 10uM": -20.6},
      {"smiles": "CCOc1ccccc1Cn1c(=O)oc2ccc(C)cc21", "hERG current change (%, negative = inhibition) at 10uM": 11.1},
      {"smiles": "CC1CCCC(NC(=O)CCS(=O)(=O)c2ccc3c(c2)NC(=O)CS3)C1C", "note": "(stereo not shown)", "hERG current change (%, negative = inhibition) at 10uM": -31.5},
      {"smiles": "Cc1nc(N[C@@H](Cc2c[nH]c3ccccc23)C(=O)O)c2oc3ccccc3c2n1", "hERG current change (%, negative = inhibition) at 10uM": 5.9},
      {"smiles": "O=C(NCCOc1ccccc1F)C1CC(=O)N(c2ccc3c(c2)OCCO3)C1", "note": "(stereo not shown)", "hERG current change (%, negative = inhibition) at 10uM": -0.91},
      {"smiles": "Cc1ccc(Cl)cc1NC(=O)Cn1cc(C(F)(F)F)cc(Cl)c1=O", "hERG current change (%, negative = inhibition) at 10uM": -2.05},
      {"smiles": "O=C(NC(Cc1c[nH]c2ccccc12)C(=O)O)c1ccc(F)cc1", "note": "(stereo not shown)", "hERG current change (%, negative = inhibition) at 10uM": 17.7},
      {"smiles": "Cc1cc(NC(=O)c2ccc(C)s2)n(-c2ccccc2)n1", "hERG current change (%, negative = inhibition) at 10uM": 6.92},
      {"smiles": "COC(=O)[C@@H]1CCCN1Cc1nc(Cc2ccccc2F)no1", "hERG current change (%, negative = inhibition) at 10uM": 2.65},
      {"smiles": "COc1cccc(CNC(=O)c2nnn(CC(=O)Nc3cc(C)ccc3C)c2N)c1", "hERG current change (%, negative = inhibition) at 10uM": 24.8},
      {"smiles": "CCOC(=O)N1CCN(c2cc(=O)n(-c3ccc(C)cc3)c(=O)[nH]2)CC1", "hERG current change (%, negative = inhibition) at 10uM": -25.8},
      {"smiles": "CC(OC(=O)CCN1C(=O)C2CC=CCC2C1=O)C(=O)c1ccc(F)cc1", "note": "(stereo not shown)", "hERG current change (%, negative = inhibition) at 10uM": -16.4},
      {"smiles": "COc1ccc(CCNC(=S)NC(=O)/C=C/c2ccc(C)cc2)cc1OC", "hERG current change (%, negative = inhibition) at 10uM": 0.564},
      {"smiles": "Cc1ccc(N(C)S(=O)(=O)c2cccc(C(=O)Nc3ccc(C)cn3)c2)cc1", "hERG current change (%, negative = inhibition) at 10uM": -14.3},
      {"smiles": "O=C(Nc1cccc(Cl)c1)N1CCN(C/C=C/c2ccccc2)CC1", "hERG current change (%, negative = inhibition) at 10uM": -68.5},
      {"smiles": "CCOC(=O)c1c(C)n(CCN2CCN(C)CC2)c2ccc(OC)cc12.Cl", "hERG current change (%, negative = inhibition) at 10uM": -20.2},
      {"smiles": "O=c1c(-c2ccccc2)c(O)c2cccc3c2n1CCC3", "hERG current change (%, negative = inhibition) at 10uM": -0.968},
      {"smiles": "CS(=O)(=O)N(CC(=O)N1CCOCC1)c1cccc(Cl)c1Cl", "hERG current change (%, negative = inhibition) at 10uM": 6.91},
      {"smiles": "CC(C)OC(=O)c1c(N)n(CC2CCCO2)c2nc3ccccc3nc12", "note": "(stereo not shown)", "hERG current change (%, negative = inhibition) at 10uM": -29.3},
      {"smiles": "Cc1ccc(OCCC(=O)OCC(=O)Nc2ccc3c(c2)OCO3)cc1", "hERG current change (%, negative = inhibition) at 10uM": 13.5},
      {"smiles": "Cc1ccc(C(=O)Nc2scc(-c3ccccc3)c2C(=O)O)cc1", "hERG current change (%, negative = inhibition) at 10uM": 8.07},
      {"smiles": "O=C(Nc1cc(=O)c2ccccc2o1)N1CCOCC1", "hERG current change (%, negative = inhibition) at 10uM": -2.22},
      {"smiles": "Fc1cc(F)cc(NC(=S)NCCCN2CCOCC2)c1", "hERG current change (%, negative = inhibition) at 10uM": -13.2},
      {"smiles": "Cc1ccsc1C(=O)Nc1ccc2c(c1)OCCO2", "hERG current change (%, negative = inhibition) at 10uM": 14.7},
      {"smiles": "O=C(COC(=O)C1CCCCC1)Nc1ccc([N+](=O)[O-])cc1", "hERG current change (%, negative = inhibition) at 10uM": 0.687},
      {"smiles": "CN(c1ccccc1C(=O)Nc1cccc(Br)c1)S(=O)(=O)c1ccccc1", "hERG current change (%, negative = inhibition) at 10uM": -5.01},
      {"smiles": "CCN(C(=O)CSc1nnc(-c2cccs2)o1)C1CCS(=O)(=O)C1", "note": "(stereo not shown)", "hERG current change (%, negative = inhibition) at 10uM": 7.74},
      {"smiles": "O=C(CN1CCC(NC(=O)Nc2ccc(F)cc2)CC1)Nc1ccccc1[N+](=O)[O-]", "hERG current change (%, negative = inhibition) at 10uM": -51},
      {"smiles": "Cc1cccc2cc(C(c3nnnn3CC3CCCO3)N3CCCc4ccccc43)c(=O)[nH]c12", "note": "(stereo not shown)", "hERG current change (%, negative = inhibition) at 10uM": -8.01},
      {"smiles": "C#CCOCCOCCOCCNc1nc(N2CCN(C(=O)[C@H](CCC(=O)O)n3cc(C(N)CC(C)C)nn3)CC2)nc(N2CCN(C(=O)[C@H](Cc3cc4ccccc4[nH]3)n3cc(C(N)[C@H](C)CC)nn3)CC2)n1.Cl", "note": "(stereo partly shown)", "hERG current change (%, negative = inhibition) at 10uM": 18.9},
      {"smiles": "Cl.O=C1CSC2(CN3CCC2CC3)N1", "note": "(stereo not shown)", "hERG current change (%, negative = inhibition) at 10uM": 11.8},
      {"smiles": "C=CCNC1=C(Cl)C(=O)N(c2cccc(Cl)c2Cl)C1=O", "hERG current change (%, negative = inhibition) at 10uM": -13.3},
      {"smiles": "CN1C(=O)[C@H]2[C@@H](/C=C/c3ccccc3)N3C(=O)CN(CCO)C(=O)[C@@]3(C)[C@H]2C1=O", "hERG current change (%, negative = inhibition) at 10uM": 2.2},
      {"smiles": "C/C(=N/NC(=O)c1ccncc1)c1ccc(NC(=O)c2ccccc2)cc1", "hERG current change (%, negative = inhibition) at 10uM": 7.92},
      {"smiles": "CCCCCC(=O)NNC(=O)Cc1ccc([N+](=O)[O-])cc1", "hERG current change (%, negative = inhibition) at 10uM": -1.38},
      {"smiles": "CCN1C(=O)CC(N2CCN(c3cccc(OC)c3)CC2)C1=O", "note": "(stereo not shown)", "hERG current change (%, negative = inhibition) at 10uM": 14.1},
      {"smiles": "CCC1(C)Cc2ccccc2-c2nc(NCCCO)[nH]c(=O)c21", "note": "(stereo not shown)", "hERG current change (%, negative = inhibition) at 10uM": -10.1},
      {"smiles": "CCCN(Cc1ccc(N(C)C)cc1)CC1CC1", "hERG current change (%, negative = inhibition) at 10uM": -16.2},
      {"smiles": "CN1CCN(C(=O)C2CCCN(S(=O)(=O)c3ccc(Br)cc3)C2)CC1", "note": "(stereo not shown)", "hERG current change (%, negative = inhibition) at 10uM": -5.87},
      {"smiles": "Cc1nc2ccccc2c2oc(C(=O)N3CCN(C(=O)c4ccco4)CC3)cc12", "hERG current change (%, negative = inhibition) at 10uM": -46.7},
      {"smiles": "CCc1ccc(C(=O)CN(C#N)c2nc(C)cc(C)n2)cc1", "hERG current change (%, negative = inhibition) at 10uM": -75.6}
    ]}
  ]
}
